Experimental data taken from article PMC4336329 (PLoS ONE, 2015).
The whole screen tested about 310,000 compounds, of which about 2,200 (0.71%) showed an effect of 50% or more. The effect is printed as a negative number. This is one part of the list.

Each compound was assayed against human ether-à-go-go-related gene (hERG) potassium channel (human, UniProt Q12809) (assay: primary screen, population patch clamp on CHO cells stably expressing hERG).
Chain of human ether-à-go-go-related gene (hERG) potassium channel (Q12809 whole entry, looked up): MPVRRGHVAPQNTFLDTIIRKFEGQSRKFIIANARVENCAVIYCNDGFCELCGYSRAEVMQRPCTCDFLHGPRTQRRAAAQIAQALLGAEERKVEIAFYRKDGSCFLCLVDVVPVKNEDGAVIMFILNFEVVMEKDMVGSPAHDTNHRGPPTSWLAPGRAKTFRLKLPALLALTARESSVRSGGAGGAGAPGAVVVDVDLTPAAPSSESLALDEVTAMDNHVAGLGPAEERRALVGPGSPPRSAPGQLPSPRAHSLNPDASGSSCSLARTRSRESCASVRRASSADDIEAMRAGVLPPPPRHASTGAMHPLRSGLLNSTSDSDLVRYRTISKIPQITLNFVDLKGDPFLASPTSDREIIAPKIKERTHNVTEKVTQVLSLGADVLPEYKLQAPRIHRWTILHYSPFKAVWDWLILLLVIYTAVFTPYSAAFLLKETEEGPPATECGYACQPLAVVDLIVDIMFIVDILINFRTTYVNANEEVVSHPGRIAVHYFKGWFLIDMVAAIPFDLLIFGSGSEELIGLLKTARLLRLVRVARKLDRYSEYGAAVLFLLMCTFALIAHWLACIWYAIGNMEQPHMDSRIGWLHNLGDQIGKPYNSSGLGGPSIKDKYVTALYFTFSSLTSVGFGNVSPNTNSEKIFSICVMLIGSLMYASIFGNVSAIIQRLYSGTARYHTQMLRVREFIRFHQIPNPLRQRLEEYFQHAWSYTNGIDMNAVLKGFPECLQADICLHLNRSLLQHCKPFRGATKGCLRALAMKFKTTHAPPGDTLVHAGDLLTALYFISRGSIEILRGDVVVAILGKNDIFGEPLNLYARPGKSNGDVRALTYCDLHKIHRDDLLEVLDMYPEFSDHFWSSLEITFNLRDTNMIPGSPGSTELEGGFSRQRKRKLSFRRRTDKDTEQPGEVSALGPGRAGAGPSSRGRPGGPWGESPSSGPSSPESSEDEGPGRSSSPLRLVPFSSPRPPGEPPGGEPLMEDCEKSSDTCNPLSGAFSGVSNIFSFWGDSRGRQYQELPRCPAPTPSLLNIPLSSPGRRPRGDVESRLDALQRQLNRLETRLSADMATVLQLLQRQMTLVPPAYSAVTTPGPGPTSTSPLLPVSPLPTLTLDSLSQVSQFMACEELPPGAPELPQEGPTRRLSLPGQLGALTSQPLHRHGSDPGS
`COc1ccc(OC)c2[nH]c(=O)c(CCNC(=O)C(=O)c3c[nH]c4ccccc34)cc12` was tested, and the “hERG current change (%, negative = inhibition) at 1uM” value was 10.3%.
`O=C(CC(=O)N/N=C\c1ccccc1)NCCc1ccccc1` was tested, and the “hERG current change (%, negative = inhibition) at 1uM” value was 13.3%.
`O=C(c1ccco1)N(CCO)Cc1cc2cc3c(cc2[nH]c1=O)OCO3` was tested, and the “hERG current change (%, negative = inhibition) at 1uM” value was 11.6%.
In the case of `Cc1cc(C)c(NC(=O)Cn2nnc(C(=O)NCc3cccs3)c2N)c(C)c1`, the “hERG current change (%, negative = inhibition) at 1uM” value is reported as 18.4%.
In the case of `Cc1ccc(C(=O)O)c(C(=O)Nc2nc3ccccc3s2)c1`, the “hERG current change (%, negative = inhibition) at 1uM” value is reported as 5.39%.
For `Cc1noc(C)c1S(=O)(=O)N(CCc1ccccc1)Cc1ccccc1`, the “hERG current change (%, negative = inhibition) at 1uM” value was 3.11%.
With `O=C(OCCN(CCOC(=O)c1ccncc1)S(=O)(=O)c1cccs1)c1ccncc1` the “hERG current change (%, negative = inhibition) at 1uM” value was -51.5%.
In the case of `O=C(NCCc1ccccc1)c1nc2nc(-c3cccs3)cc(C(F)(F)F)n2n1`, the “hERG current change (%, negative = inhibition) at 1uM” value is reported as -27%.
With `COc1ccc(/C(O)=C2/C(=O)C(=O)N(CCN3CCOCC3)C2c2ccccn2)cc1` (centres unmarked) the “hERG current change (%, negative = inhibition) at 1uM” value was 3.23%.
With `CCCn1c(SCC(=O)NNC(=O)c2ccc(OC)cc2)nnc1C(C)C` the “hERG current change (%, negative = inhibition) at 1uM” value was 16.1%.
`Cc1ccsc1C1CC(=O)OC2=C1C(=O)CC(C)(C)C2` (centres unmarked) was tested, and the “hERG current change (%, negative = inhibition) at 1uM” value was 8.61%.
For `O=C(CCN1C(=O)C2C3C=CC(C4CC34)C2C1=O)Oc1ccc(Br)cc1` (centres unmarked), the “hERG current change (%, negative = inhibition) at 1uM” value was 14.8%.
With `CCN(CC)S(=O)(=O)c1ccc(N2CCOCC2)c(NC(=O)CCOc2ccccc2)c1` the “hERG current change (%, negative = inhibition) at 1uM” value was 0.377%.
With `COc1ccc(CCNC(=O)C2CCN(S(=O)(=O)N3CCOCC3)CC2)cc1OC` the “hERG current change (%, negative = inhibition) at 1uM” value was 2.83%.
With `CC(C)(C)CC(C)(C)NC1=CC(=O)OC12CCCCC2` the “hERG current change (%, negative = inhibition) at 1uM” value was 11%.
In the case of `COCCn1c(SCc2nc3ccccc3c(=O)[nH]2)nc2ccccc2c1=O`, the “hERG current change (%, negative = inhibition) at 1uM” value is reported as 9.84%.
For `CCOC(=O)C1=C(COC(=O)c2ccc(C)s2)NC(=O)NC1C` (centres unmarked), the “hERG current change (%, negative = inhibition) at 1uM” value was 2.72%.
In the case of `C/C(Cl)=C\Cn1c(Nc2ccccc2)nc2c1c(=O)n(C)c(=O)n2C`, the “hERG current change (%, negative = inhibition) at 1uM” value is reported as 4.97%.
With `S=C(NCCc1cccc(Cl)c1)NCc1ccccc1` the “hERG current change (%, negative = inhibition) at 1uM” value was 15.8%.
With `CSc1ccc(CCCCCCOC(=O)C(C)(C)C)cc1` the “hERG current change (%, negative = inhibition) at 1uM” value was -1.82%.
`COc1cc(/C=N\NC(=O)C2COc3ccccc3O2)cc(OC)c1O` (centres unmarked) was tested, and the “hERG current change (%, negative = inhibition) at 1uM” value was 9.77%.
For `O=C(COc1cccc2c1CCN(Cc1ccccc1F)C2=O)N1CCCCC1`, the “hERG current change (%, negative = inhibition) at 1uM” value was 6.27%.
In the case of `CCOc1ccccc1NC(=O)N1CCCc2ccccc21`, the “hERG current change (%, negative = inhibition) at 1uM” value is reported as 7.1%.
For `CCOC(=O)CNCCC(=O)c1ccc(Br)cc1`, the “hERG current change (%, negative = inhibition) at 1uM” value was 0.301%.
For `COC(=O)C1=C(c2cccc(C#N)c2)C[C@@H]2CC[C@H]1N2C(=O)N1CCOCC1`, the “hERG current change (%, negative = inhibition) at 1uM” value was 4.18%.
`C=CCn1c(-c2ccc(F)cc2)n[nH]c1=S` was tested, and the “hERG current change (%, negative = inhibition) at 1uM” value was 2.35%.
In the case of `COc1ccccc1OCCOc1ccc(/C=C2\C(=N)N3N=C(S(C)(=O)=O)SC3=NC2=O)cc1`, the “hERG current change (%, negative = inhibition) at 1uM” value is reported as 10.8%.
For `O=C1CCCN1c1ccc(S(=O)(=O)NCc2ccc(F)cc2)cc1`, the “hERG current change (%, negative = inhibition) at 1uM” value was 14.5%.
In the case of `O=C(O)CC1C(=O)NCCN1C/C=C/c1ccccc1` (centres unmarked), the “hERG current change (%, negative = inhibition) at 1uM” value is reported as 13.2%.
With `O=C(N/N=C/c1cc(Br)ccc1O)c1ccncc1` the “hERG current change (%, negative = inhibition) at 1uM” value was 9.89%.
With `CCN(CC)c1ccc(N2C(=NC(=O)C3CC3)SC3CS(=O)(=O)CC32)cc1` (centres unmarked) the “hERG current change (%, negative = inhibition) at 1uM” value was 2.97%.
In the case of `C[n+]1ccccc1Nc1cc([N+](=O)[O-])ccc1N.[I-]`, the “hERG current change (%, negative = inhibition) at 1uM” value is reported as 13%.
In the case of `COc1ccc2c(c1)CCCC2NS(=O)(=O)OCC(Cl)(Cl)Cl` (centres unmarked), the “hERG current change (%, negative = inhibition) at 1uM” value is reported as 6.61%.
For `CN(CC(=O)Nc1ccc(F)c(F)c1F)C(=O)C1CCC1`, the “hERG current change (%, negative = inhibition) at 1uM” value was 12.6%.
For `CCN(CC)CC(C)OC(=O)c1cc(OC)c(OC)c(OC)c1.Cl` (centres unmarked), the “hERG current change (%, negative = inhibition) at 1uM” value was -7.49%.
With `Cc1cc(OC(=O)c2ccccc2Br)cc(=O)n1C` the “hERG current change (%, negative = inhibition) at 1uM” value was -9.74%.
For `Cc1cc(=O)[nH]c(N/N=C/c2cccs2)n1`, the “hERG current change (%, negative = inhibition) at 1uM” value was 8.69%.
`CN(C(=O)c1cc2n(n1)C(C(F)(F)F)CC(c1ccco1)N2)c1ccc(OC(F)(F)F)cc1` (centres unmarked) was tested, and the “hERG current change (%, negative = inhibition) at 1uM” value was -0.611%.
For `CCCCNC(=S)NNC(=O)c1csc(C)c1`, the “hERG current change (%, negative = inhibition) at 1uM” value was 0.0052%.
In the case of `Cc1cc(C)c(NC(=O)CSc2nc(=O)n(CCN3CCOCC3)c3c2CCC3)c(C)c1`, the “hERG current change (%, negative = inhibition) at 1uM” value is reported as -5.78%.
In the case of `Cc1ccc(OCCNC(=O)c2ccco2)cc1C`, the “hERG current change (%, negative = inhibition) at 1uM” value is reported as 18.7%.
In the case of `CC(C)C(=O)Nc1ccc(C(=O)NNC(=O)CCCOc2ccc(Cl)cc2Cl)cc1`, the “hERG current change (%, negative = inhibition) at 1uM” value is reported as 21%.
With `CCOC(=O)C1CCN(Cc2ccc(O)c(OC)c2)CC1` the “hERG current change (%, negative = inhibition) at 1uM” value was -16.4%.
With `Cc1csc(=O)n1CCC(=O)OCC(=O)NCc1ccc(Cl)cc1Cl` the “hERG current change (%, negative = inhibition) at 1uM” value was 7.68%.
In the case of `CCOC(=O)Cn1c(=O)oc2ccc(C)cc21`, the “hERG current change (%, negative = inhibition) at 1uM” value is reported as 7.34%.
With `COC(=O)c1cc(Br)c(=O)n(Cc2ccncc2)c1` the “hERG current change (%, negative = inhibition) at 1uM” value was 3.89%.
For `Cl.NC(Cc1ccccc1)Cc1ccccc1`, the “hERG current change (%, negative = inhibition) at 1uM” value was 7.6%.
In the case of `Nc1ccccc1SCc1ccccc1Cl`, the “hERG current change (%, negative = inhibition) at 1uM” value is reported as 11.1%.
In the case of `O=C(NC(=S)Nc1ccccc1[N+](=O)[O-])c1ccco1`, the “hERG current change (%, negative = inhibition) at 1uM” value is reported as 11%.
With `N#C/C(=C(/O)CSc1ccccn1)c1nc2ccccc2s1` the “hERG current change (%, negative = inhibition) at 1uM” value was 3.25%.
For `CC(=O)Nc1ccc(NC(=O)C(C)OC(=O)CCCOc2ccc(Cl)cc2C)cc1` (centres unmarked), the “hERG current change (%, negative = inhibition) at 1uM” value was 17.7%.
For `O=C(c1ccc([N+](=O)[O-])s1)N1CCN(c2ccccn2)CC1`, the “hERG current change (%, negative = inhibition) at 1uM” value was 11%.
For `Cc1ccc2cc(CN(CCCN(C)C)C(=O)NCc3ccccc3)c(=O)[nH]c2c1C`, the “hERG current change (%, negative = inhibition) at 1uM” value was -5.18%.
With `CCOC(=O)c1c(S(=O)(=O)NCCc2cccs2)c(C)n(C)c1C` the “hERG current change (%, negative = inhibition) at 1uM” value was 6.98%.
In the case of `CC(=O)c1cc2c(cc1NC(=O)c1cccc(S(=O)(=O)N3CCN(C)CC3)c1)OCO2`, the “hERG current change (%, negative = inhibition) at 1uM” value is reported as 12.7%.
`Fc1ccc(N2N=C(c3cccs3)CC2c2ccco2)c(F)c1` (centres unmarked) was tested, and the “hERG current change (%, negative = inhibition) at 1uM” value was 5.91%.
For `Cc1nn(-c2ccccc2)c(Cl)c1C(=O)NNC(=O)c1ccccc1O`, the “hERG current change (%, negative = inhibition) at 1uM” value was 8.86%.
For `Cc1ccc(CSc2nc3ccccc3c(=O)n2C)cc1`, the “hERG current change (%, negative = inhibition) at 1uM” value was 12.1%.
For `COc1cc(/C=C/C(=O)OCC(=O)N2CCCCCC2)ccc1OCC#N`, the “hERG current change (%, negative = inhibition) at 1uM” value was 1.95%.
